For 22 molecules, binding signal results are on record in publication PMC12136788.

The list shows a part of the results.

T1: UNK ZnF1-3 (human, UniProt Q9C0B0 31-174)
T1 sequence: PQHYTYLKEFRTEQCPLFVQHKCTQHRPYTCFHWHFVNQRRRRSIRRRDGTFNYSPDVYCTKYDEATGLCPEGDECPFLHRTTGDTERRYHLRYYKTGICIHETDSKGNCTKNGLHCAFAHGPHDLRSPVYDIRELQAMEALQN

B1: chr1:46159212:46159213:+_ENSG00000159596_ENST00000372025|hu_mus|hu_hu_hu_mus_True|48_88 (ssRNA)
RNA: GGGAGUUCUACAGUCCGACGAUCUCUGAUCCCUCCCAAGAAAGCUAGGAAACUGGCUCCAUAAGCCAUCUGAGUGAAAGCUAGGACGGGAAUAUAAGACUUUGUUAUUACCAUGAGAAGUGGGGGAGCAGUAAAGGGGAUUAACAACAGAGGAUUGAGCAUCA
B2: chr11:47650564:47650565:-_ENSG00000109919_ENST00000530428|hu_hu|motif|central (ssRNA)
RNA: GGGAGUUCUACAGUCCGACGAUCAUAGGUAUUGACGAGGUAGGCCAGUGAGUUACACAGCCACAAAGAAAGGAUGUCACCGGGAAGGCGAGGAACAAGACCCGCGAAAAAUCCUAGAAUGCCCUCUUCCCGAUAGAUGGUUAUCAACAGAGGAUUGAGCAUCA
B3: chr3:55303971:55303972:+_ENSMUSG00000027797_ENSMUST00000054237|mus_mus|FALSE|FALSE (ssRNA)
RNA: GGGAGUUCUACAGUCCGACGAUCGCCGUCGACAAUUGUGGCCAGGCCAAAGUCACCCAACUUGAGUGACUUACUGCCAUCCUGGUGCUCAUACACCAGCAGAUUCUCUGGCUUGAUGUCACGGUGGACGAUGUUCAGGCUGUGCAACAGAGGAUUGAGCAUCA
B4: chr8:95500983:95500984:-_ENSG00000164944_ENST00000437199|hu_hu|hu_hu_hu_mus_True|8_38 (ssRNA)
RNA: GGGAGUUCUACAGUCCGACGAUCAGAACACAUCUAUCGAGUAAAGGACCGUACAUGACGGCCUCUACCACUGCCUCCACUAACAAACUUUCCUCUCUGAGCCUCCAUGCCGCUAUUUGUACUAGCCCCAGGAAGGUCCAGGCCCAACAGAGGAUUGAGCAUCA
B5: chr7:149068622:149068623:-_ENSMUSG00000025139_ENSMUST00000001950|mus_hu|mus_mus_mus_hu_False|58_58 (ssRNA)
RNA: GGGAGUUCUACAGUCCGACGAUCGUGAGGCCUCUGAGUGUGGCUUGUGGUCUGUCCUGGGUUAGAGUUGUUAAUAUCACUAAGUGGACCAUCUAGAACGUUCCAGUCCCGCCUGACACCUUCAUUCCCAAUGGAGAAGAAAUCCAACAGAGGAUUGAGCAUCA
B6: chr8:74858975:74858976:-_ENSG00000154582_ENST00000284811|hu_mus|hu_hu_hu_mus_True|8_18 (ssRNA)
RNA: GGGAGUUCUACAGUCCGACGAUCGACCUUGUAGGUAAAAUACAUGCACACUUUUGAUAGCACAUGUGAGGGGAUCUCUCUAAAAUUGACCUCGUUGGUUUCAUUCUCAGCAAACUGACCUGGGCCACUCAACAUGGCCUUUAUCAACAGAGGAUUGAGCAUCA
B7: chr9:82769708:82769709:-_ENSMUSG00000032253_ENSMUST00000034787|mus_hu|FALSE|FALSE (ssRNA)
RNA: GGGAGUUCUACAGUCCGACGAUCAAAAGUCUUUGCAGCUGAAGAAGUAGAUGGUUGCUCAGUGACAACUGGAUCUACAACCACUCGGUUGCUUCUGGUUCGAACCACAGAACUAGAUUCUGUUUUACCGUUUAUCUGAGCAGCCAACAGAGGAUUGAGCAUCA
B8: chr5:68473423:68473424:+_ENSG00000134057_ENST00000507798|hu_hu|FALSE|FALSE (ssRNA)
RNA: GGGAGUUCUACAGUCCGACGAUCCUCCAACUCAAGUUUACAAGUUACACCUUUGCCACAGCCUUGGCUAAAUCUUGAACUAGUGCAGAAUUCAGCUGUGGUAGAGUGCUGAUCUUAGCAUGCUUCGAUGUGGCAUACUUGUUCCAACAGAGGAUUGAGCAUCA
B9: chr8:141525804:141525805:+_ENSG00000104472_ENST00000220913|hu_hu|motif|central (ssRNA)
RNA: GGGAGUUCUACAGUCCGACGAUCGUAGAAAAAUAUCUGAACAGUCAACUUUUCUUAAGACAAAAAUUCAAAUGUAACAUACGGCCGGAACUAUAAAUUUAGCUAAAACUGAAUCGAGCUGUUUAUAAGAACUGAUUCCAAAAUCAACAGAGGAUUGAGCAUCA
B10: chr16:94651144:94651145:+_ENSMUSG00000040785_ENSMUST00000117648|mus_hu|mus_mus_mus_hu_True|8_58 (ssRNA)
RNA: GGGAGUUCUACAGUCCGACGAUCAUUUUCUUGAAUCAAGUGGCGAAUAACAUAGUCCACUGCUUCAUUUAGAAAAUUUUUGCUAGAAAAACAGGUUGUAUAGUCUUCUGUGCUCAAAACUUUCCAAGAGAGCAGCUCUUUGAGCAACAGAGGAUUGAGCAUCA
B11: chr11:93905761:93905762:+_ENSMUSG00000020859_ENSMUST00000103168|mus_hu|motif|central (ssRNA)
RNA: GGGAGUUCUACAGUCCGACGAUCAGCUGGCACACCGGUAGAAAUAGAAAAGUGCACAAGCAGCAAAACAGAGAGAGAUACGGAGAUAGCAGAAUUAAUGACCACCGCCCCGCCAACAAAGCCAAACACAAACAGCAGCAUGCACAACAGAGGAUUGAGCAUCA
B12: chr3:10015032:10015033:+_ENSMUSG00000027533_ENSMUST00000029046|mus_mus|mus_mus_mus_hu_True|98_108 (ssRNA)
RNA: GGGAGUUCUACAGUCCGACGAUCGUUGUUGCCAUCACACGUAAUGAUACAAUCUGGCUUGGCCAUUGCGCCCAUUUUUCGCAAAGCUAUUCCCACUCCUAGCUCCUUCAUGUAUUCAUCAAAGCCUUUGCUGUCCACCAGGCGCAACAGAGGAUUGAGCAUCA
B13: chr8:98253062:98253063:-_ENSMUSG00000036550_ENSMUST00000098473|mus_mus|FALSE|FALSE (ssRNA)
RNA: GGGAGUUCUACAGUCCGACGAUCGGUUUCCAACACAUGCUCGGGUGCAUUGAGCUCCAACAGCAGCAUGAUAAAAAUCCUAUGGUACGGAAGUUGCUGAAAUUCACUCUGCCGAACAUCAUGAUCCUGUAGGAGAACUCCCACCAACAGAGGAUUGAGCAUCA
B14: chr11:113085134:113085135:+_ENSG00000149294_ENST00000316851|hu_hu|motif|central (ssRNA)
RNA: GGGAGUUCUACAGUCCGACGAUCGGUGAUGGAGGGAAUGGGGUCUCCGGAGGCUUCACAGGUAAGAGUGACCUGCUCCUCGGAUUCCAUGGCAGUCUGGUUCUCUACAUAUGUGAUUUUGGGUUUUGCAAAGACUUUGAGGUGCAACAGAGGAUUGAGCAUCA
B15: chr1:58468927:58468928:-_ENSMUSG00000026034_ENSMUST00000148330|mus_mus|mus_mus_mus_hu_False|48_68 (ssRNA)
RNA: GGGAGUUCUACAGUCCGACGAUCAAUUACUGAAAAAGAUGUUCAUUACCUUAGCUAUGUACUUAAUUUAAUAAAGCACCCAAACAACAUAAAAUGUGCAAUAUAAAAAUGUUAAGAAUUUACAAAGCUGUACAAAAUAACUUACAACAGAGGAUUGAGCAUCA
B16: chr2:168010559:168010560:-_ENSMUSG00000051149_ENSMUST00000088001|perfect_dup|FALSE|FALSE (ssRNA)
RNA: GGGAGUUCUACAGUCCGACGAUCUUCCAAAGUCUUUUUAUCUGCAUUGAAGGUACAGUAAGGGCAGUUAAGGAGAAUCCUAUUUUCAAAGUCUUCACUAUGGACAUUCCGGAAAUGACUUUUGUAGGCAGAGAAGAAUUUUGACAACAGAGGAUUGAGCAUCA
B17: 52290995_52293528_1129_CDS_ENSG00000078618_ENST00000352171|human|control|control (ssRNA)
RNA: GGGAGUUCUACAGUCCGACGAUCAAGGCUUCCAAACAACAUUUCCUUUCUGUUUGCAUCAGAAGGCCUUGCAAGUUGAUAUUCACUAUCAACAGCUUCAACUUCACGGUCAAUUGCAUCUCUGAUCAUUAGUGGGUGGAUGAACAACAGAGGAUUGAGCAUCA
B18: chr16:44739181:44739182:-_ENSMUSG00000022668_ENSMUST00000162512|mus_mus|FALSE|FALSE (ssRNA)
RNA: GGGAGUUCUACAGUCCGACGAUCUCUCACUUCAUGCACUUGUAUAUGCUCUGGACUUGUCAGUUAAAAUAGAAAAGCCAGCUAGCAUCUGUCCUAAUGACCAAUAUGAUUUAAUUCAUUAUUUGUAACCCUUACCCCCAGCGCCAACAGAGGAUUGAGCAUCA
B19: chrX:147082666:147082667:-_ENSMUSG00000025272_ENSMUST00000087258|mus_hu|FALSE|FALSE (ssRNA)
RNA: GGGAGUUCUACAGUCCGACGAUCGGAAGAGCCACCAAAGGAGACACUGGUGCUAAGUGUGCCUCCAAAGCCAGUGCUGGUGCAGGGAGAGCCACCGAAGCAGAUACUGGUACUGAGUGUACCACCAAAGCUACCACUGGAGCUCAACAGAGGAUUGAGCAUCA
B20: chr2:10942682:10942683:-_ENSG00000143870_ENST00000272227|hu_mus|FALSE|FALSE (ssRNA)
RNA: GGGAGUUCUACAGUCCGACGAUCUGGUGUUAACCUCUGGCAGUGACCACACCAUGGUGCAUAAAAUUCUACAAGCCACAGGCCGUCACUCUGAAUAACUUCUCUGUUGAAAUUUGAUGGCGUCAACUCGAUGACAUCAUCACUCAACAGAGGAUUGAGCAUCA
B21: 45735942_45738520_1019_CDS_ENSG00000108424_ENST00000290158|human|control|control (ssRNA)
RNA: GGGAGUUCUACAGUCCGACGAUCUUCACAGACCACCUGCAUAAUAAAGUGCCUUUCAGACUCUUUAUCAAAGUUUGCUUUGGUGAACUCCAAUGAGUUCAGGAGUGCAUUCGUAGCAGCUAGCUUCACAUUAUUACUAGGCUCCAACAGAGGAUUGAGCAUCA
B22: chrX:69798090:69798091:-_ENSMUSG00000031343_ENSMUST00000055966|mus_mus|mus_mus_mus_hu_False|38_38 (ssRNA)
RNA: GGGAGUUCUACAGUCCGACGAUCAAGUCCCCGGGUUCUUGUCGUCUUGAUUCCCCUUGACCAGUGGUUCCAGGGAGAAUAUUAAUCAGGAAAAGAAGUACAACUCUGGUCAUGUAACAGUGACUUGUUUGUGUGAUUAUCAUCCAACAGAGGAUUGAGCAUCA

The target in this assay is T1, UNK ZnF1-3. In words: nsRBNS (natural sequence RNA bind-n-seq); RBNS binding buffer (assumed for nsRBNS): 25 mM Tris pH 7.5, 150 mM KCl, 3 mM MgCl2, 0.01% Triton X-100, 500 ug/ml BSA, 20 U/ml SUPERase-In, 4 C; UNK is unkempt and MSI1 is Musashi-1; names of the RNAs are library labels; protein concentration not given here; high values mean tight binding.
The molecule B1 returned a binding signal of 1.3 enrichment R.

Consider B2, for which the binding signal is 0.995 enrichment R.

B3 showed a binding signal of 0.581 enrichment R.

The molecule B4 displayed a binding signal of 0.887 enrichment R.

For B5, the binding signal worked out at 0.826 enrichment R.

For B6, the binding signal was 0.566 enrichment R.

Molecule B7 showed a binding signal of 0.582 enrichment R.

In the case of B8, the binding signal amounted to 0.36 enrichment R.

Molecule B9 registered a binding signal of 1.11 enrichment R.

The molecule B10 showed a binding signal of 0.69 enrichment R.

In turn, B11 registered a binding signal of 2.55 enrichment R.

Turning to B12, the binding signal was 0.784 enrichment R.

In turn, B13 gave a binding signal of 1.04 enrichment R.

For the molecule B14, the binding signal worked out at 0.814 enrichment R.

In the case of B15, the binding signal was 1.74 enrichment R.

For the molecule B16, the binding signal was found to be 1.15 enrichment R.

Molecule B17 came in with a binding signal of 1.24 enrichment R.

Turning to B18, the binding signal is 2.09 enrichment R.

As for B19, the binding signal is 1.37 enrichment R.

In turn, B20 showed a binding signal of 0.629 enrichment R.

B21 came in with a binding signal of 0.609 enrichment R.

The molecule B22 had a binding signal of 0.71 enrichment R.
